Experimental data as given in PubChem BioAssay AID588342 (National Center for Advancing Translational Sciences (NCATS), 2011).
The whole screen tested about 360,000 compounds, of which about 25,000 (6.9%) were called active. Inconclusive means that the source gave no clear call. Such entries were picked first, then a sample of the others. Calls come from the whole dose curve; as a rule, active = well fitted inhibition curve with a large enough effect; inconclusive = small, poorly fitted or top-dose-only effect; inactive = flat fitted curve, though single readings scatter. A potency beside an inconclusive call is a rough fit, not a confirmed value.

biological target: Luciferin 4-monooxygenase (Photinus pyralis) (UniProt P08659); experiment: qHTS profiling assay for firefly luciferase inhibitor/activator using purifed enzyme and Km concentrations of substrates (counterscreen for miR-21 project); conditions: purified FLuc, luminescence inhibition; series mostly up to 57.5 µM; activity change, negative = inhibition: at the top concentration; note: nearly all actives have a fitted effect of over 55% in size;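 for activity change, negative = inhibition: plate controls were vehicle for no effect and reference inhibitor for full effect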
Sequence of UniProt P08659 (P08659 whole entry, looked up): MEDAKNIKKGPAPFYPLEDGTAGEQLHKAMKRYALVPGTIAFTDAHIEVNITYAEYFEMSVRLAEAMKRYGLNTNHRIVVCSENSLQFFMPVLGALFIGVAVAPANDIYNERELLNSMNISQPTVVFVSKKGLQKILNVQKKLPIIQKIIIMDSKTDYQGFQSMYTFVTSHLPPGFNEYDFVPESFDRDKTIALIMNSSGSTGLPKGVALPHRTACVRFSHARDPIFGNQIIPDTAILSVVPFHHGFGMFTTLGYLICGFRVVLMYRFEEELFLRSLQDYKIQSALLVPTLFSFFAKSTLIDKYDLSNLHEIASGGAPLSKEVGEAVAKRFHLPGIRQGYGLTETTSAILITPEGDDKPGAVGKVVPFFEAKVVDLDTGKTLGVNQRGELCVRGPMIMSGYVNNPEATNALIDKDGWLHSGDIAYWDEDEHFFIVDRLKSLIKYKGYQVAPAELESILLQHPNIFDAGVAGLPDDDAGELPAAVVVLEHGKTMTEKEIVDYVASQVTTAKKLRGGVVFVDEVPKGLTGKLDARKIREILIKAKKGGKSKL
How it was run: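 Purified P. pyralis luciferase (10nM final) with 10uM D-luciferin and 10uM ATP (Km levels) in 50mM Tris acetate pH 7.5, 10mM Mg acetate, 0.01% Tween-20, 0.05% BSA; qHTS 6-point titration, ~60 µM downward; luminescence read.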
Potency is the fitted concentration of half-maximal effect; tags give direction and shape of the fitted curve.

SMILES | Potency | activity change, negative = inhibition
Cc1ccc(Cn2ccc(NC(=O)c3cc(CC(C)C)on3)n2)cc1 | inconclusive: 16.9 µM [inhibitor, partial curve] | –
O=C(Nc1cccc(Cl)c1)NC1CC2CCC1C2 (centres undefined) | active: 23.9 µM | –
CCCc1cc(-c2nc(-c3ccc(Cl)cc3)cs2)ccn1 | inconclusive: 26.9 µM [inhibitor, single point] | –
CC(=O)c1cccc(NC(=O)CCOc2ccccc2)c1 | inconclusive: 26.9 µM [inhibitor, partial curve, poor fit] | –
CCc1ccc(CNC(=O)CCSCc2ccccc2F)cc1 | inconclusive: 23.9 µM [inhibitor, partial curve, poor fit] | –
COc1ccc(-c2nnc(-c3cccnc3)o2)cc1OC | inconclusive: 37.9 µM [inhibitor, partial curve, poor fit] | –
O=C(NC1CCCCC1)C(c1cccs1)N(Cc1cccs1)C(=O)c1ccco1 (centres undefined) | – | inactive: 0.627%
COC(=O)N/N=C/c1c[nH]c2ccccc12 | – | inactive: -16.5%
O=C(COc1ccc2c(c1)OCO2)Nc1ccc(Cl)cn1 | active: 13.5 µM | –
COC(=O)C(Cc1c[nH]c2ccccc12)NC(=O)COc1ccc(Cl)cc1Cl (centres undefined) | inconclusive: 15.1 µM [inhibitor, partial curve] | –
c1ccc2c(c1)ncn2CCCCOc1ccc2c(c1)CCC2 | inconclusive: 26.9 µM [inhibitor, single point] | –
COc1ccc(C(=O)n2cnc3ccccc32)cc1 | inconclusive: 23.9 µM [inhibitor, single point] | –
CCOc1ccc(-n2c(CCC(=O)O)ccc2-c2ccc(Br)cc2)cc1 | inconclusive: 23.9 µM [inhibitor, single point] | –
O=C(O)c1cccnc1SCc1ccc([N+](=O)[O-])cc1 | inconclusive: 37.9 µM [inhibitor, partial curve, poor fit] | –
CC(/C=C1\SC(=S)N(CCC(=O)Nc2ccc(O)cc2)C1=O)=C\c1ccccc1 | – | inactive: -8.36%
Cn1/c(=N/N=C/c2ccc(Cl)c([N+](=O)[O-])c2)sc2ccccc21 | inconclusive: 1.51 µM [inhibitor, partial curve, poor fit] | –
Cn1c(=O)c2c(SCC(=O)N3CCc4ccccc43)nc(-c3ccccc3Cl)nc2n(C)c1=O | – | inactive: -4.4%
CCOC(=O)COc1ccccc1C(=O)c1cnn(-c2ccccc2)c1 | active: 10.7 µM | –
C=C(C)CSc1nnc(-c2ccccc2)n1N | inconclusive: 21.3 µM [inhibitor, partial curve, poor fit] | –
O=C(OCC(=O)N1CCCc2ccccc21)c1cc(S(=O)(=O)N2CCOCC2)ccc1F | – | inactive: 1.12%
CCCNC(=O)c1ccc2c(c1)ncn2-c1ccc(C)cc1C | – | inactive: 1.1%
O=C(CSc1ccc2c(c1)OCCO2)Nc1cccc(S(=O)(=O)N2CCCCC2)c1 | inconclusive: 16.9 µM [inhibitor, partial curve] | –
CCOC(=O)c1c(NC(=O)CS(=O)(=O)c2ccc(C)cc2)sc2c1CCCCC2 | inconclusive: 12 µM [inhibitor, partial curve, poor fit] | –

SMILES | Potency | activity change, negative = inhibition
CCc1ccc(CNC(=O)c2ccc3c(c2)N=C(C)c2cc(C)ccc2S3)cc1 | – | inactive: -2.59%
CCCS(=O)(=O)Nc1cc(-c2cn3cccc(C)c3n2)ccc1C | active: 12 µM | –
Cc1cc2cc(CNS(=O)(=O)c3ccccc3)ccc2n1C | inconclusive: 26.9 µM [inhibitor, partial curve, poor fit] | –
S=C(NCc1ccco1)Nc1ccc(Oc2ccccc2)cc1 | inconclusive: 30.1 µM [inhibitor, partial curve, poor fit] | –
COc1ccccc1C(=O)N(C)c1nnc(-c2ccccc2)s1 | active: 19 µM | –
COc1ccc(/C=C/C(=O)Nc2c(C(=O)O)[nH]c3ccccc23)cc1OC | inconclusive: 23.9 µM [inhibitor, single point] | –
COc1ccc(C(=O)Nc2ccc(C(=O)N3CCCC3)cc2)cc1[N+](=O)[O-] | inconclusive: 23.9 µM [inhibitor, partial curve, poor fit] | –
Cn1c(NNC(=O)CCC2CCCCC2)cc(=O)n(C)c1=O | – | inactive: -24.2%
COc1ccc2c(c1)C1=NN(/C(C)=C\C(C)=O)C(c3ccccc3)C1CC2 (centres undefined) | active: 19 µM | –
CCN(CC(=O)Nc1ccc2c(c1)OCCO2)S(=O)(=O)c1cccs1 | inconclusive: 37.9 µM [inhibitor, partial curve, poor fit] | –
CCCCc1ccc(/C=C2/C(=O)ON=C2c2ccccc2)s1 | inconclusive: 37.9 µM [inhibitor, partial curve, poor fit] | –
O=c1c(Br)c(N2CCCC2)cnn1-c1ccccc1 | active: 21.3 µM | –
Cc1c(NC(=O)c2ccc(OC(C)C)cc2)cccc1-c1nc2ncccc2o1 | inconclusive: 7.57 µM [inhibitor, partial curve, poor fit] | –
COc1cc(/C=N/NC(=O)c2ccc(CSc3nc4ccccc4[nH]3)cc2)ccc1O | inconclusive: 37.9 µM [inhibitor, partial curve, poor fit] | –
O=S(=O)(c1ccc2c(c1)CCN2)N1CCCC1 | – | inactive: -1.16%
O=c1c2c(nc3nc(SCc4ccccc4)[nH]n13)CCC2 | inconclusive: 21.3 µM [inhibitor, partial curve, poor fit] | –
O=C1COc2ccc(C(=O)COC(=O)c3cccnc3Cl)cc2N1 | inconclusive: 23.9 µM [inhibitor, partial curve] | –
O=C1CN(C(=O)c2ccc(S(=O)(=O)N3CCCCC3)cc2)C(c2ccc(F)cc2)c2cc(F)ccc2N1 (centres undefined) | – | inactive: 3.11%
COCCNC(=O)/C(C#N)=C/c1ccccc1Br | inconclusive: 26.9 µM [inhibitor, partial curve, poor fit] | –
O=C(O)Cc1ccc(NC(=O)c2ccc3c(c2)C(=O)N(Cc2ccco2)C3=O)cc1 | inconclusive: 9.53 µM [inhibitor, partial curve, poor fit] | –
O=C(CN(C(=O)c1csnn1)c1ccc(Br)cc1)NC1CCCCC1 | – | inactive: 4.14%
COc1cc2c(=O)n(CCC(=O)NCC3CCCO3)c(=O)n(CC(=O)Nc3ccc(C)cc3)c2cc1OC (centres undefined) | inactive | –
O=C(NNC(=O)c1ccccc1Cl)c1csc(N2CCOCC2)n1 | inconclusive: 19 µM [inhibitor, partial curve] | –

SMILES | Potency | activity change, negative = inhibition
Cc1ccsc1C(=O)NN=C1CCCCCC1 | inconclusive: 37.9 µM [inhibitor, single point] | –
Cc1ccc(S(=O)(=O)C(CNC(=O)C(=O)NCc2ccc(Cl)cc2)c2cccs2)cc1 (centres undefined) | – | inactive: -3.56%
Cc1ccc(C(=O)NCCn2c(C)cc3ccccc32)cc1C | inconclusive: 23.9 µM [inhibitor, single point] | –
C=C(C)CCOC(=O)C(CC(=O)O)NCc1ccco1 (centres undefined) | – | inactive: 8.11%
COc1ccccc1NC(=O)c1csc2c1CCCC2 | active: 19 µM | –
O=C(Nn1c(COc2ccccc2)nc2ccccc2c1=O)C(Cl)(Cl)Cl | inconclusive: 37.9 µM [inhibitor, single point] | –
O=C(Nc1ccc(NC(=O)C2CCCCC2)nc1)c1cccs1 | inconclusive: 19 µM [inhibitor, partial curve] | –
O=C(Nc1ccc(NC(=O)c2ccco2)c(Cl)c1)c1ccccc1 | inconclusive: 7.57 µM [inhibitor, partial curve, poor fit] | –
Cn1cc(Cl)c(C(=O)OCC(=O)Nc2nc(-c3ccc(Br)cc3)cs2)n1 | inconclusive: 23.9 µM [inhibitor, single point] | –
O=C(/C=C/c1ccc(OCCCF)cc1)Nc1ccnc(-c2ccncc2)n1 | inconclusive: 1.9 µM [inhibitor, full curve] | –
O=C1CN(C(=O)/C=C/c2ccc(Cl)cc2Cl)CCN1 | inconclusive: 21.3 µM [inhibitor, partial curve, poor fit] | –
COc1ccc(OCc2cc(=O)[nH]c3ccccc23)cc1 | inconclusive: 37.9 µM [inhibitor, partial curve, poor fit] | –
CC(C)NC(=S)NC(=O)c1ccc(Cl)cc1Cl | – | inactive: -17.6%
COc1ccc(Br)cc1C(=O)Nc1nc2ccc(F)cc2s1 | inconclusive: 2.39 µM [inhibitor, full curve] | –
O=C(CNc1ccccc1)Nc1ccc(F)cc1 | inconclusive: 21.3 µM [inhibitor, partial curve] | –
COc1cccc(NC(=S)/C(=C(\[O-])c2cc(C)n(-c3ccccc3F)c2C)[n+]2ccc(N(C)C)cc2)c1 | inconclusive: 23.9 µM [inhibitor, partial curve, poor fit] | –
O=C(Nc1ccccn1)Nc1ccccc1[N+](=O)[O-] | inconclusive: 26.9 µM [inhibitor, single point] | –
Cc1cccc(NS(=O)(=O)c2ccc(NC(=O)CN(c3cc([N+](=O)[O-])ccc3C)S(C)(=O)=O)cc2)c1 | – | inactive: 7.82%
Cc1ccc(C2=NC3(CCCCC3)NC2=S)cc1 | inconclusive: 2.39 µM [inhibitor, full curve, poor fit] | –
Cn1c(=O)c2cn3c(c2n(C)c1=O)C(c1ccccc1)CC(c1ccccc1)=N3 (centres undefined) | inconclusive: 26.9 µM [inhibitor, partial curve, poor fit] | –
CCOC(=O)C(C)Oc1cccc2c(=O)n(CC(=O)NCc3ccc(F)cc3)ccc12 (centres undefined) | – | inactive: -1.7%
CCn1c(COc2ccc3ccccc3c2C)nnc1SCC(=O)Nc1cccc(C(=O)O)c1 | inconclusive: 23.9 µM [inhibitor, single point] | –
CC1CCN(c2ccc3c(c2)S(=O)(=O)c2cccc(C(=O)NC4CCCCC4)c2C3=O)CC1 | inconclusive: 3.98 µM [inhibitor, full curve, poor fit] | –
